The text below walks through data of ChEMBL document CHEMBL1201862, “PubChem BioAssay data set” (2004).

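Cells were grown in 96-well plates and exposed to each compound for 48 hours at five concentrations; endpoints were interpolated linearly between bracketing concentrations, or set to the highest concentration if not reached. The concentration for 50% growth inhibition is given as GI50.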 Calls of active or inactive are those of the source. No stated cut-off is given here; in the data, active = GI50 up to about 1.1 µM and inactive = higher. Some results are limits rather than exact numbers.

The test system of this assay is NCI-H322M. Put plainly: NCI anticancer screen, dose series, 48 h.
Turning to `CC(C)(C)c1ccc(-c2nnc(SCc3ccc(Cl)cc3)n2-c2cccc(C(F)(F)F)c2)cc1`, the GI50 was inactive: 34.7 µM.
The result for `CC(C)(CO[C@H]1C[C@H]2CC[C@@]1(C)C2(C)C)[N+](=O)[O-]` reads inactive: 14.4 µM.
The result for `COc1ccc2nc(-c3cccc(N(C)C)c3)cc(O)c2c1` reads active: 0.222 µM; that for `COc1cc(/C=C2\Cc3cc(OC)c(OC)cc3C2=O)cc(OC)c1`, inactive: > 77.8 µM.
In the case of `O=Cc1ccc(-c2ccc(-c3ccc(CO)s3)o2)s1`, the GI50 is inactive: 33.8 µM.
The result for `C/C=C/C=C/C1=NN(c2cccc(S(=O)(=O)O)c2)C2(C1)SCC(=O)N2c1nc2ccccc2s1` (stereo not given) reads inactive: > 100 µM; that for `CSc1nc(-c2ccccc2)[nH]c(=O)n1`, inactive: 54.7 µM; that for `CC(=O)Oc1ccc2cc(Oc3ccc(Cl)cc3)c(=O)oc2c1`, inactive: 49.3 µM.
The result for `CCN(CC)c1ccc2cc(-c3csc(C)n3)c(=O)oc2c1` reads inactive: > 100 µM; that for `C(=C\C(SCc1ccccc1)SCc1ccccc1)/c1ccccc1`, inactive: > 10 µM; that for `COc1cc(NS(C)(=O)=O)ccc1N1Cc2c[nH]c3ccc4nccc1c4c23`, inactive: 27.6 µM.
The result for `Cc1cccc(C)c1NC(=O)CCCC(=O)C(C#N)c1ccc(Cl)cc1` (stereo not given) reads inactive: > 100 µM; that for `O=C(NNC(=S)Nc1ccccc1)C12CC3CC(CC(C3)C1)C2`, inactive: 25.2 µM; that for `C[N+](C)(C)c1ncnc2c1ncn2C1CCCO1` (stereo not given), inactive: > 100 µM.
On to `COC1C(N)C(OC2C(Oc3cccc4c(O)c5c(=O)oc6ccc(C)c7c(=O)oc(c34)c5c67)OC(C)C(O)C2(C)O)OC(C)C1O` (stereo not given), for which the GI50 was active: 0.0655 µM.
The result for `CC(=O)OCC1OC(OC2C(COC(C)=O)OC(Sc3ccccc3C)C(OC(C)=O)C2OC(C)=O)C(OC(C)=O)C(OC(C)=O)C1OC(C)=O` (stereo not given) reads inactive: > 100 µM.
The result for `CCCCCCCCCCCCCCCCCCNc1nc(=O)n(C2CC(O)C(COP(=O)(O)OCC(COP(=O)(O)OC3C(CO)OC(n4ccc(N)nc4=O)C3O)OCCCCCCCCCCCCCCCCCC)O2)cc1F` (stereo not given) reads inactive: 24.3 µM; that for `COc1ccc(NC(=O)CSc2nc(C)nc3c2sc(=S)n3-c2ccccc2)cc1`, inactive: 7.96 µM.
Turning to `CN1C(=O)C2C(=O)N(Cc3ccccc3)CC(=O)N2c2cccnc21` (stereo not given), the GI50 was inactive: > 100 µM.
The result for `O=C1C(c2ccccc2)=C(c2ccccc2)[C@H](c2ccccc2)[C@]1(Cc1nnn(-c2ccc([N+](=O)[O-])cc2)c1N1CCOCC1)c1ccccc1` reads inactive: > 37.5 µM.
The result for `Nc1ncnc2c1ncn2CC(O)C(=O)O` (stereo not given) reads inactive: > 100 µM; that for `Cc1nc(=O)[nH]c2[nH][nH]c(=O)c12`, inactive: > 100 µM.
As for `Cc1cc2[nH]c3c(C#N)c(-c4ccccc4)c(/C=N/c4cccc(C(F)(F)F)c4)c(=O)n3c2cc1C`, the GI50 is inactive: > 100 µM.
In the case of `Oc1ccc(Br)cc1/C=N/c1cccc(C(F)(F)F)c1`, the GI50 is inactive: 27.9 µM.
The result for `COc1ccc(N/N=C2\CCOc3ccc(C)cc3C2=O)cc1` reads inactive: 60.7 µM; that for `CCN1C(=O)CS/C1=N\NC(=O)CSc1nc2ccccc2c(=O)n1CC`, inactive: > 100 µM; that for `Cc1cccc2c(N)c3cccc(C(=O)NCC[N+](C)(C)Cc4ccccc4[N+](=O)[O-])c3nc12`, inactive: 15 µM.
With `CN[C@H]1CC[C@]23C[C@]24CC[C@]2(C)[C@@H]([C@H](C)N(C)C)CC[C@@]2(C)[C@@H]4CC[C@H]3C1(C)C`, the GI50 was inactive: 16.1 µM.
The result for `CSc1ccc(C(=O)C(=O)c2ccc(SC)s2)s1` reads inactive: > 10 µM.
The result for `C/C(=N/NC(=S)Nc1cccc(C)c1)c1ccccn1` reads active: < 0.01 µM; that for `Clc1ccc(/C=C/c2nc(Cl)c(-c3ccc(Cl)cc3)c(Cl)n2)cc1`, inactive: > 100 µM.
The result for `C=C(C)[C@H]1C2=CC(C)=C(O2)[C@@H](O[C@@H]2c3oc(cc3C)[C@H](C(=C)C)[C@H]3C=C(CC[C@H]2C(=C)C)C(=O)O3)[C@H](C(=C)C)CCC2=C[C@H]1OC2=O` reads inactive: > 100 µM; that for `O=C1OCc2nc3c(c(-c4ccccc4C(F)(F)F)c21)C(=O)OC3`, inactive: > 100 µM; that for `CN(C)c1ccc(-c2c(C#N)c(O)n(NS(=O)(=O)c3ccccc3)c(=O)c2C#N)cc1`, inactive: > 100 µM.
`COc1ccccc1C1ON=C(c2ccc([N+](=O)[O-])cc2)N1C12CC3CC(CC(C3)C1)C2` (stereo not given): the GI50 is inactive: > 100 µM.
The result for `O=C1C/C(Br)=C\c2ccccc2-c2ccccc21` reads inactive: 4.09 µM; that for `CCC1C2C=CC(CC2)N1S(=O)(=O)c1ccc(C)cc1` (stereo not given), inactive: 23.9 µM.
The result for `CCCCCCCCCCCCNC(=O)NCC(OCC)OCC` reads inactive: > 10 µM.
For the compound `CCCCCCC(=O)C/C(CCC(=O)N(Cc1ccccc1)Cc1ccccc1)=N\NC(N)=O`, the GI50 was inactive: > 100 µM.
With `[O-][n+]1c2c([n+]([O-])c3ccccc31)CCCCCCCCCC2`, the GI50 is inactive: > 100 µM.
Turning to `CCOC(=O)C1(Br)C(c2ccccc2)NC(=O)N(C2OC(COC(=O)c3ccccc3)C(OC(=O)c3ccccc3)C2OC(=O)c2ccccc2)C1(C)Br` (stereo not given), the GI50 was inactive: > 52.4 µM.
Consider `Oc1ccccc1C1=NOC(c2ccc(C(F)(F)F)cc2)C1` (stereo not given), for which the GI50 was inactive: > 50 µM.
The result for `Cc1ccc(C2SC(=N)Nc3c2c(C)nn3C(=O)c2ccccc2O)cc1` (stereo not given) reads inactive: > 10 µM.
The result for `O=C1Nc2ccccc2/C1=c1\[nH]c(=O)/c(=C\c2ccc(OCc3ccccc3)cn2)[nH]c1=O` reads inactive: > 100 µM.
The result for `CCOC(=O)C1C(c2ccc(OC)cc2)c2c(n[nH]c2O)CC1(C)O` (stereo not given) reads inactive: > 100 µM; that for `O=C1NC2CCCCC2N=C1CC(=O)c1ccc(Br)cc1` (stereo not given), inactive: > 100 µM.
Take `Nc1nc(N)c2nc(CN(C=O)c3ccc(C(=O)O)cc3)cnc2n1`: the GI50 is inactive: 24 µM.
The result for `O=C1C=CC(=O)c2c1ccc1c3ccccc3n(-c3ccccc3)c21` reads inactive: 17.1 µM; that for `CCn1c2ccccc2c2cc(Nc3cc(C)[nH]c(=O)n3)ccc21`, inactive: > 100 µM.
With `COC1OC(C)C(O)CC1OS(=O)(=O)c1ccc(C)cc1` (stereo not given), the GI50 is inactive: > 100 µM.
The result for `C#CCNC(Cc1ccccc1)C(=O)O` (stereo not given) reads inactive: > 100 µM; that for `CC1=C(C)C(=O)C(C2=CC(=O)C=CC2=O)=C(C2=CC(=O)C=CC2=O)C1=O`, inactive: > 100 µM; that for `CCc1cccc(C)c1N1C(=O)C(=O)C(c2nc3ccccc3o2)/C(=N/NC(=S)NN)C1=O` (stereo not given), inactive: > 100 µM.
The result for `CCOC(=O)C1(NC(=O)OC(C)(C)C)CCc2[nH]oc(=O)c2C1` (stereo not given) reads inactive: > 100 µM.
The result for `Cc1cc2c(cc1C)[n+]([O-])c(NCCCN(C)C)c(C#N)[n+]2[O-]` reads inactive: > 100 µM.
In the case of `CC1(c2nc3ccccc3[nH]2)CCC(C(N)=O)C(C)(C)O1` (stereo not given), the GI50 is inactive: > 100 µM.
The result for `CC(C)C[C@H]1[C@@H](OCc2ccccc2)COS(=O)N1[C@H](C)c1ccccc1` (stereo not given in full) reads inactive: 16 µM.
The result for `COc1ccc(CN2C[C@H]3[C@@H](CC(=O)O[C@H]3C)CC2=O)cc1` reads inactive: > 100 µM.
The result for `CCN(CC)CCOCC1CCCN2CCCCC12` (stereo not given) reads inactive: > 100 µM.
In the case of `O=C(CCCCCCCCC(=O)OCCCn1cc(C(=O)NC(=O)OCc2ccccc2)c(=O)[nH]c1=O)OCCCn1cc(C(=O)NC(=O)OCc2ccccc2)c(=O)[nH]c1=O`, the GI50 is inactive: > 100 µM.
`Cc1ccc(S(=O)(=O)NC2C(=O)c3ccccc3C(=O)C2n2cnc3ccccc32)cc1` (stereo not given): the GI50 was inactive: 35.8 µM.
The result for `CC(=O)Oc1c2oc3ccc(Cl)cc3c(=O)c2c(O)c2ccsc12` reads inactive: > 100 µM; that for `CCc1nc(Cl)c(Cl)c(Cl)n1`, inactive: > 100 µM.
The result for `NC(CC(O)(c1ccccc1)c1ccccc1)c1ccccc1S` (stereo not given) reads inactive: 19.2 µM; that for `COC(=O)[C@H](Cc1ccccc1)NC(=O)N(CCC#N)CCCCN(CCC#N)C(=O)N[C@@H](Cc1ccccc1)C(=O)OC`, inactive: > 100 µM; that for `c1ccc2c(c1)Nc1ccccc1[P+]21c2ccccc2Nc2ccccc21`, active: 0.383 µM.
The result for `CCOC1=C(c2ccccc2)N2CCCCC2O1` (stereo not given) reads inactive: 7.57 µM.
Regarding `CCOC(=O)n1c2ccccc2c(=O)n1CCO`, the GI50 is inactive: > 100 µM.
Consider `Fc1ccc(Oc2nc3ccc(C(F)(F)F)cc3nc2-c2ccccc2)cc1`, for which the GI50 is inactive: > 100 µM.
`CCCC(N)C(=O)c1ccccc1` (stereo not given): the GI50 is inactive: > 100 µM.
For `C=CCSC1=N/C(=C\c2ccc(Cl)cc2)C(=O)N1CC=C`, the GI50 is inactive: 49.9 µM.
As for `COc1cc2c(c(OC)c1OC)C(=O)c1c(O)cc(C)c(OC)c1C2=O`, the GI50 is inactive: 62.1 µM.
The result for `NNC(=O)C(=O)NN=C(C(Cl)(Cl)CO)C(Cl)(Cl)CO` reads inactive: > 100 µM; that for `CC1CC(C)C(O)C(C2CC(CC(=O)NC3CCCCC3)CC(=O)O2)C1` (stereo not given), inactive: > 100 µM.
The result for `Cc1ccc(SSCCCCS(=O)O)cc1` reads inactive: 25.9 µM; that for `C[C@H]1[C@H](C)CC[C@]2(C(=O)O)CCC3(COC(=O)/C=C/c4ccc(O)cc4)C(=CCC4[C@@]5(C)CC[C@H](O)C(C)(C)C5CC[C@]43C)[C@H]12` (stereo not given in full), inactive: 4.15 µM.
As for `C1=CC(=[N+]2N=C(c3ccccc3)CC2c2ccccc2)C=CC1=C1SC(c2ccccc2)(c2ccccc2)c2ccccc21.[O-][Cl+3]([O-])([O-])[O-]` (stereo not given), the GI50 is inactive: > 100 µM.
The result for `CC1(C)[C@@H](Cn2ccc(=O)[nH]c2=O)CC[C@@]1(C)CO` reads inactive: > 100 µM; that for `Oc1nc(S)nc(SCc2c(Cl)c(Cl)c(Cl)c(Cl)c2Cl)n1`, inactive: > 100 µM.
The result for `N#Cc1c(N)nc2[nH]nc(N)c2c1-c1ccccc1` reads inactive: 19.9 µM.
